Experimental data from the GPR68 mutational scans of Howard et al. (2025).

B1: GPR68, Q15743 (parent)
chain: MGNITADNSSMSCTIDHTIHQTLAPVVYVTVLVVGFPANCLSLYFGYLQIKARNELGVYLCNLTVADLFYICSLPFWLQYVLQHDNWSHGDLSCQVCGILLYENIYISVGFLCCISVDRYLAVAHPFRFHQFRTLKAAVGVSVVIWAKELLTSIYFLMHEEVIEDENQHRVCFEHYPIQAWQRAINYYRFLVGFLFPICLLLASYQGILRAVRRSHGTQKSRKDQIQRLVLSTVVIFLACFLPYHVLLLVRSVWEASCDFAKGVFNAYHFSLLLTSFNCVADPVLYCFVSETTHRDLARLRGACLAFLTCSRTGRAREAYPLGAPEASGKSGAQGEEPELLTKLHPAFQTPNSPGSGGFPTGRLA

What was measured:
[1] = variants of: B1; assay: cAMP reporter score (Enrich2 score, wild type = 0); higher = more signal; HEK293T, FACS bins
[2] = variants of: B1; assay: surface expression score (Enrich2 score, wild type = 0); higher = more signal; HEK293T, FACS bins

Variant | cAMP reporter score ([1]; pH 5.5) | cAMP reporter score ([1]; pH 6) | cAMP reporter score ([1]; pH 6, modulator: ogerin) | cAMP reporter score ([1]; pH 6.5, modulator: ogerin) | surface expression score [2]
MGNITADNSSMSCTIDHTIHQTLAPVVYVTVLVVGFPANCLSLYFGYLQIKARNELGVYLCNLTVADLFYICSLPFWLQYVLQHDNWSHGDLSCQVCGILLYENIYISVGFLCCISVDRYLAVAHPFRFHQFRTLKAAVGVSVVIWAKELLTSIYFLMHEEVIEDENQHRVCFEHYPIQAWQRAINYYRFLVGFLFPICLLLASYQGILRAVRRSHGTQKSRKDQIQRLVLSTVVIFLACFLPYHVLLLVRSVWEASCDFAKGVFNAYHFSLLLTPFNCVADPVLYCFVSETTHRDLARLRGACLAFLTCSRTGRAREAYPLGAPEASGKSGAQGEEPELLTKLHPAFQTPNSPGSGGFPTGRLA [S276P] | -0.834 | -1.41 | -2.13 | -0.421 | -0.829
MGNITADNSSMSCTIDHTIHQTLAPVVYVTVLVVGFPANCLSLYFGYLQIKARNELGVYLCNLTVADLFYICSLPFWLQYVLQHDNWSHGDLSCQVCGILLYENIYISVGFLCCISVDRYLAVAHPFRFHQFRTLKAAVGVSVVIWAKELLTSIYFLMHEEVIEDENQHRVCFEHYPIQAWQRAINYYRFLVGFLFPICLLLASYQGILRAVRRSHGTQKSRKDQIQRLVLSTVVIFLACFLPYHVLLLVRSVWEASCDFAKGVFNAYHFSLLLTQFNCVADPVLYCFVSETTHRDLARLRGACLAFLTCSRTGRAREAYPLGAPEASGKSGAQGEEPELLTKLHPAFQTPNSPGSGGFPTGRLA [S276Q] | -1.1 | -0.242 | -0.887 | -1.43 | -0.548
MGNITADNSSMSCTIDHTIHQTLAPVVYVTVLVVGFPANCLSLYFGYLQIKARNELGVYLCNLTVADLFYICSLPFWLQYVLQHDNWSHGDLSCQVCGILLYENIYISVGFLCCISVDRYLAVAHPFRFHQFRTLKAAVGVSVVIWAKELLTSIYFLMHEEVIEDENQHRVCFEHYPIQAWQRAINYYRFLVGFLFPICLLLASYQGILRAVRRSHGTQKSRKDQIQRLVLSTVVIFLACFLPYHVLLLVRSVWEASCDFAKGVFNAYHFSLLLTRFNCVADPVLYCFVSETTHRDLARLRGACLAFLTCSRTGRAREAYPLGAPEASGKSGAQGEEPELLTKLHPAFQTPNSPGSGGFPTGRLA [S276R] | -1.06 | -0.913 | -0.668 | -0.392 | –
MGNITADNSSMSCTIDHTIHQTLAPVVYVTVLVVGFPANCLSLYFGYLQIKARNELGVYLCNLTVADLFYICSLPFWLQYVLQHDNWSHGDLSCQVCGILLYENIYISVGFLCCISVDRYLAVAHPFRFHQFRTLKAAVGVSVVIWAKELLTSIYFLMHEEVIEDENQHRVCFEHYPIQAWQRAINYYRFLVGFLFPICLLLASYQGILRAVRRSHGTQKSRKDQIQRLVLSTVVIFLACFLPYHVLLLVRSVWEASCDFAKGVFNAYHFSLLLTTFNCVADPVLYCFVSETTHRDLARLRGACLAFLTCSRTGRAREAYPLGAPEASGKSGAQGEEPELLTKLHPAFQTPNSPGSGGFPTGRLA [S276T] | 0.011 | 1.07 | 1.11 | 1.67 | 0.395

The least precise scores are not listed. The source holds two more conditions with little spread; they are left out. In variant names, del marks residues removed and ins residues inserted between the two positions. For some of these results: The data file names ogerin without a concentration.
